Experimental data taken from paper PMC10668032.
The other results are listed elsewhere or left out. At the low end of the ranking the order means little.

Molecular target: SIX1-Q177R homeodomain (UniProt Q15475)
Test: universal protein binding microarray
Settings: Universal all-10-mer PBM (8x60K, AMADID 030236), 300 nM GST-tagged protein, Alexa Fluor 488 anti-GST; buffer, salt, pH and temperature not stated; high values mean tight binding; most listed sequences are background and not binding sites; double strand, one strand shown

| Sequence | binding signal |
| --- | --- |
| AGATAATG | 0.00311 E-score |
| AAGCATGA | -0.0327 E-score |
| CAAGTTCC | -0.213 E-score |
| TATGGCGA | -0.241 E-score |
| CAGCCACC | 0.0173 E-score |
| ATATGGGC | -0.138 E-score |
| AGTAGCGG | -0.0364 E-score |
| ACGAAGAA | -0.0589 E-score |
| TAAGAAAA | -0.076 E-score |
| CCCAAAGA | -0.139 E-score |
| GAACCCGC | 0.135 E-score |
| CAATTCCA | -0.169 E-score |
| GATCGAGA | -0.00237 E-score |
| ACGCTAGT | 0.113 E-score |
| ACACCGTA | 0.47 E-score |
| GACACCGC | 0.487 E-score |
| GGAAGCTA | -0.284 E-score |
| GCACTTAA | -0.144 E-score |
| ACCCCCGT | 0.273 E-score |
| AACTCACC | -0.0531 E-score |
| ATTGGTGA | -0.18 E-score |
| ATAATCCA | 0.0281 E-score |
| GGCGGAGA | 0.114 E-score |
| AGAATATA | -0.114 E-score |
| GCCAGGAA | -0.0578 E-score |

| Sequence | binding signal |
| --- | --- |
| AACTTGCA | -0.128 E-score |
| AAAGACAT | -0.387 E-score |
| GCTGGGAC | -0.0817 E-score |
| CTTTGGGA | -0.0341 E-score |
| AAACGAAG | -0.128 E-score |
| CATGGTTC | -0.0671 E-score |
| GCCATCGA | -0.291 E-score |
| TCCGTGCA | 0.036 E-score |
| CAAGGCTG | 0.0315 E-score |
| CGGAACAA | -0.0573 E-score |
| CCCTAAGC | 0.00473 E-score |
| GCACATTA | 0.00653 E-score |
| CGCGTTAG | 0.0144 E-score |
| GTAGTCAA | -0.0291 E-score |
| AACCGTCC | -0.249 E-score |
| AGAGTGTG | 0.247 E-score |
| CGTTTGAG | 0.0821 E-score |
| CATGTATC | -0.0369 E-score |
| ACGAGTTG | -0.0143 E-score |
| CGAATGGC | -0.26 E-score |
| ACTGGCGG | -0.129 E-score |
| ACTCTATC | 0.136 E-score |
| AGCCATCA | -0.279 E-score |
| AGGTCTTC | -0.0224 E-score |
| ACGCCTAC | -0.0379 E-score |

| Sequence | binding signal |
| --- | --- |
| CGTTGCAG | -0.0723 E-score |
| AGGCCTGC | -0.245 E-score |
| TCCACACA | -0.0792 E-score |
| ATACGCAG | -0.0631 E-score |
| AGGCAGTC | -0.281 E-score |
| GATATGAA | -0.111 E-score |
| TCTCGAAA | -0.129 E-score |
| GATTCTCA | -0.265 E-score |
| CTGGGCGC | -0.185 E-score |
| AGGAGAAT | -0.117 E-score |
| AAAGCAGG | -0.0306 E-score |
| CGACGATA | -0.0801 E-score |
| AGCCCCTG | -0.0585 E-score |
| TAGACGGA | -0.157 E-score |
| CTTAAAAA | -0.284 E-score |
| CGAGCTCC | -0.118 E-score |
| ACCAACCC | 0.167 E-score |
| TGGCGACA | 0.0688 E-score |
| ATCGCAAC | 0.0326 E-score |
| CTATGGAG | -0.149 E-score |
| GATCCGCA | 0.14 E-score |
| GATCAGGA | -0.074 E-score |
| AACAAACC | -0.0429 E-score |
| CGGGCATC | -0.00407 E-score |
| ATGCTCGG | -0.213 E-score |

| Sequence | binding signal |
| --- | --- |
| GGTCGACA | 0.172 E-score |
| CCCAACAC | 0.403 E-score |
| GAAAAGTC | -0.128 E-score |
| CCACCTCC | 0.159 E-score |
| AGTATACT | -0.0238 E-score |
| CGATCACC | -0.0447 E-score |
| CCTTGGAA | -0.03 E-score |
| TGAAAACA | 0.109 E-score |
| CCACCGAC | 0.0604 E-score |
| CAACCCGC | 0.0332 E-score |
| CTGACCTA | -0.0423 E-score |
| AGGAGCTC | -0.177 E-score |
| ATACGGAG | -0.0606 E-score |
| ATCTATAC | 0.0276 E-score |
| CTAAAATA | -0.0953 E-score |
| CTGCCAAG | -0.193 E-score |
| GGACGAAC | -0.0404 E-score |
| CAGACGGC | -0.0978 E-score |
| GAGAAAGC | -0.123 E-score |
| ATTAAATG | -0.12 E-score |
| CTCGCGCC | -0.0556 E-score |
| GACCACCC | 0.0643 E-score |
